Data: PubChem BioAssay AID720709 (National Center for Advancing Translational Sciences (NCATS), 2013)
The campaign covered roughly 360,000 compounds. About 520 (0.14%) were called active. Inconclusive means that the source gave no clear call. Such entries were picked first, then a sample of the others. The call rests on the fitted dose curve; in most records, active means well fitted inhibition curve with a large enough effect; inconclusive means small, poorly fitted or top-dose-only effect; inactive means no such curve, though single readings can be large or run the other way. Potencies of inconclusive entries are left out as doubtful fits.

Molecular target: Rap guanine nucleotide exchange factor 3 (Homo sapiens) (UniProt O95398)
Sequence of UniProt O95398 (O95398 whole entry, looked up): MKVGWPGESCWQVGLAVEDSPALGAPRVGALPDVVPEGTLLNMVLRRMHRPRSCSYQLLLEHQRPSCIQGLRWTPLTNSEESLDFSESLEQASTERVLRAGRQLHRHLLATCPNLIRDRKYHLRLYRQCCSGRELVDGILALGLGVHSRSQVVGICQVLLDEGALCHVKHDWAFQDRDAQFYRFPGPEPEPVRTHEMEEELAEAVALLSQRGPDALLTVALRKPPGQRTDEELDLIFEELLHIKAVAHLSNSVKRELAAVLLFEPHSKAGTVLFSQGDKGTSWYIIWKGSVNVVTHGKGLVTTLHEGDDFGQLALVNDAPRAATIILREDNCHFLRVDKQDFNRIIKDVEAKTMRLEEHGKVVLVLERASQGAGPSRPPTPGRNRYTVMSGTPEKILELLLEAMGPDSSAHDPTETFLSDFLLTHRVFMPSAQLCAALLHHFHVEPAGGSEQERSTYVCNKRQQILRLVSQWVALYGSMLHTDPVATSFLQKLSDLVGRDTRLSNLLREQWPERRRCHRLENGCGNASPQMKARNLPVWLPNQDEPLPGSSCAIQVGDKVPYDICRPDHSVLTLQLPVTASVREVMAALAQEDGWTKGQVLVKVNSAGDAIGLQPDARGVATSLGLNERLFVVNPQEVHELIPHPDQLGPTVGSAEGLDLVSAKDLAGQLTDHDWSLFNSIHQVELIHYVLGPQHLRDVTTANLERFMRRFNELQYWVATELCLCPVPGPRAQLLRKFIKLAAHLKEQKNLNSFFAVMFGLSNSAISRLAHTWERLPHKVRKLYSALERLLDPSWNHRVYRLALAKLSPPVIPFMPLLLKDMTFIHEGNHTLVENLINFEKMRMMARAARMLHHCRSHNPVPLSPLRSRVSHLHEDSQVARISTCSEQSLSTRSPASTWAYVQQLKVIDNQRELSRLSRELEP
Test: qHTS for Antagonist of cAMP-regulated guanine nucleotide exchange factor 3 (EPAC1): primary screen; further: nearly all actives have a fitted effect of over 50% in size;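 on activity change, negative = inhibition: plate controls were vehicle for no effect and positive control for full effect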
Conditions: EPAC1 GEF assay, Rap1b-BODIPY-GDP exchange fluorescence; activity change, negative = inhibition: at 115 µM (top of the series)
Potency means the concentration at half of the fitted maximal effect; tags describe the fitted curve by direction and shape.

| Structure (SMILES) | Potency | activity change, negative = inhibition |
| --- | --- | --- |
| COc1ccc(-c2nc3n(c(=O)c2C#N)CCS3)cc1 | inconclusive [inhibitor, single point] |  |
| N#Cc1ccc(-c2csc(NC(=O)/C=C/c3cccs3)n2)cc1 | inconclusive [inhibitor, single point] |  |
| CCCCn1c(O)c(/C=C/C=C/C=Nc2ccccc2)sc1=S | inconclusive [inhibitor, single point] |  |
| Cc1ccc(-n2c(O)c(C=Nc3cc(C)on3)c3ccccc3c2=O)c(C)c1 |  | inactive: -5.09% |
| CCOC(=O)CNc1c(-c2ccc(F)cc2)nc2cnccn12 | inconclusive [inhibitor, partial curve, poor fit] |  |
| O=C(/C=C/NCC(=O)c1ccccc1)c1ccc(Br)cc1 | inconclusive [inhibitor, single point] |  |
| O=C(COC(=O)CNC(=O)c1ccccc1)NC12CC3CC(CC(C3)C1)C2 |  | inactive: -4.34% |
| c1ccc(-c2csc(Nc3cccnc3)n2)nc1 |  | inactive: 3.36% |
| Cc1ccc(SC(C)C(=O)NCc2cccnc2)cc1 (stereo not given) | inconclusive [inhibitor, single point] |  |
| Cc1c(C(=O)Nc2ccccc2)sc2nc3n(c(=O)c12)CCCCC3 | inconclusive [inhibitor, partial curve] |  |
| O=C(CCc1nc2ccccc2[nH]1)Nc1ccc2c(c1)OCCO2 | inconclusive [inhibitor, single point] |  |
| CC(C)(CNC(=O)C1CCCN1C(=O)c1cccs1)N1CCOCC1 (stereo not given) |  | inconclusive: -12.7% [inhibitor] |
| CC1(CCc2ccccc2)NC(=O)N(CC(=O)Nc2ccc(S(N)(=O)=O)cc2)C1=O (stereo not given) | inconclusive [inhibitor, partial curve] |  |
| CCN1C(=O)C(c2ccc(O)cc2)(c2ccc(O)cc2)c2ccccc21 | inconclusive [inhibitor, single point] |  |
| Cc1ccc(C(NC(=O)C2CCN(CCOc3ccc(Cl)cc3Cl)CC2)c2ccccn2)cc1 (stereo not given) | inconclusive [inhibitor, full curve, poor fit] |  |
| O=C(O)CSc1cc(NS(=O)(=O)c2ccc(Cl)cc2)c2ccccc2c1O | inconclusive [inhibitor, partial curve] |  |
| CC(C)n1c(CNC(=O)c2ccccc2F)nnc1SCC(=O)NC1CCCCC1 | inconclusive [inhibitor, partial curve] |  |
| COc1ccc(CCNC(=O)c2ccc3c(c2)N(Cc2ccc(F)cc2)CCS3)cc1OC | inconclusive [inhibitor, partial curve] |  |
| O=C(COC(=O)COc1ccc(Cl)cc1)NCCCc1ccccc1 | inconclusive [inhibitor, single point] |  |
| COCCNc1nc(-c2cc3ccccc3o2)cs1 | inconclusive [inhibitor, single point] |  |
| Cc1ccc(SCC(=O)OCC(=O)NCc2ccco2)cc1 | inconclusive [inhibitor, full curve, poor fit] |  |
| O=C(OCn1ncc(Br)c(Br)c1=O)c1ccccc1Cl | inconclusive [inhibitor, partial curve] |  |

| Structure (SMILES) | Potency | activity change, negative = inhibition |
| --- | --- | --- |
| COc1ccc(OC)c(NC2c3ccccc3C(=O)N2c2cccnc2)c1 (stereo not given) | inconclusive [inhibitor, single point] |  |
| CCOc1ccc(-c2cc(NC(=O)c3c(F)cccc3F)c(C(=O)O)s2)cc1 | inconclusive [inhibitor, partial curve] |  |
| Cc1noc(C)c1CSCC(=O)Nc1nc(-c2ccc(F)c(F)c2)cs1 | inconclusive [inhibitor, partial curve] |  |
| CCOC(=O)c1sc(N2N=C(C)C(N=Nc3cccc(C)c3)C2=O)nc1C (stereo not given) | inconclusive [inhibitor, full curve] |  |
| O=C(O)C1Nc2c(Cl)cc(Cl)c(Cl)c2C2C=CCC12 (stereo not given) | inconclusive [inhibitor, partial curve] |  |
| COc1ccc2cc3[n+](cc2c1O)CCc1cc2c(cc1-3)OCO2 | inconclusive [inhibitor, partial curve] |  |
| O=C(CCCn1c(=O)oc2ccccc21)N1CCN(c2ccc(F)cc2)CC1 | inconclusive [inhibitor, partial curve, poor fit] |  |
| CCc1ccc(-n2cccc2/C=C2/C(=N)N3C(=NC2=O)SN=C3S(C)(=O)=O)cc1 | active: 79.4 µM |  |
| O=C(CC(=O)c1ccccc1)CC(O)(C=Cc1ccccc1)c1ccccc1 (stereo not given) | inconclusive [inhibitor, partial curve] |  |
| O=C(Cn1nc(C(=O)O)c2ccccc2c1=O)NCc1ccco1 | inconclusive [inhibitor, single point] |  |
| COc1ccc(NC(=O)/C=C/c2ccccc2)cn1 |  | inactive: -19.3% |
| N#C/C(=C\c1ccc(Sc2ccccc2)o1)c1nc2ccccc2[nH]1 | inconclusive [inhibitor, partial curve, poor fit] |  |
| O=C(Nc1nnc(-c2ccc3c(c2)CCCC3)o1)c1c(F)cccc1F | inconclusive [inhibitor, single point] |  |
| Cc1ccc(S(=O)(=O)N(C)C)cc1NC(=S)NC(C)CCCC(C)C (stereo not given) | inconclusive [inhibitor, partial curve] |  |
| Cc1ccc(S(=O)(=O)c2cn(C)c3cc(N4CCOCC4)c(F)cc3c2=O)cc1 | inconclusive [inhibitor, partial curve, poor fit] |  |
| COc1cc([N+](=O)[O-])ccc1NC(=O)COC(=O)C=C(C)C | inconclusive [inhibitor, full curve, poor fit] |  |
| O=C(NCc1ccccn1)/C(=C/c1ccco1)NC(=O)c1ccccc1 |  | inactive: -1.29% |
| Cc1c(NC(=O)c2cccc(NC(=O)Cc3ccccc3F)c2)c(=O)n(-c2ccccc2)n1C | inconclusive [inhibitor, single point] |  |
| CCCCCCCCCCCNC(=O)c1ccoc1C | inconclusive [inhibitor, partial curve, poor fit] |  |
| Cc1ccc(C)c(NC(=O)Nc2ccc3c(c2)OCO3)c1 |  | inactive: -13.4% |
| O=C1NC(=O)C(=Cc2ccccc2[N+](=O)[O-])S1 | active: 50.1 µM |  |
| COc1ccc(C(C)(O)c2nc(-c3ccc(F)c(Cl)c3)cs2)cc1 (stereo not given) | inconclusive [inhibitor, full curve, poor fit] |  |

| Structure (SMILES) | Potency | activity change, negative = inhibition |
| --- | --- | --- |
| COc1cc(NC(=S)N2CCN(CCO)CC2)c(OC)cc1Cl |  | inactive: -14.7% |
| Cc1cccc(C)c1NC(=O)C(c1ccc(-c2ccccc2)cc1)n1c(=O)c(-c2ccco2)nc2ccccc21 (stereo not given) | inconclusive [inhibitor, partial curve] |  |
| O=c1[nH]c(/C=C\c2cccc(C(F)(F)F)c2)nc(O)c1[N+](=O)[O-] | inconclusive [inhibitor, partial curve] |  |
| CN(C)c1ccc(N=Nc2ccc(C(=O)O)cc2)cc1 | inconclusive [inhibitor, partial curve] |  |
| N=C1/C(=C/c2ccc(-c3cccc(C(=O)O)c3)o2)C(=O)N=C2SC=C(c3ccccc3)N12 | inconclusive [inhibitor, single point] |  |
| COc1ccccc1/C=C/C(=O)NC(=S)N1CCN(C)CC1 | inconclusive [inhibitor, partial curve, poor fit] |  |
| CC1=C(C(=O)N(C(C)C)C(C)C)CC(CC(=O)NC2CCCC2)C(=O)N1CCCN1CCCC1=O (stereo not given) | inconclusive [inhibitor, full curve, poor fit] |  |
| COc1ccc2nc(SCc3cnc(C)nc3N)[nH]c2c1 | inconclusive [inhibitor, single point] |  |
| CCOC(=O)c1cnc(SCc2ccccc2)nc1N |  | inactive: -12.2% |
| COc1cccc(CN2CCNC(=O)C2CC(=O)NCc2cn3cccc(C)c3n2)c1OC (stereo not given) | inconclusive [inhibitor, partial curve, poor fit] |  |
| COc1ccc2cc(C(=O)NCCCN3CCCC3=O)[nH]c2c1 | inconclusive [inhibitor, partial curve] |  |
| Cc1onc(-c2ccc(Cl)cc2Cl)c1C(=O)/C=C/N(C)C | inconclusive [inhibitor, partial curve, poor fit] |  |
| CCCCCCCCN1C(=O)[C@H](CC(=O)NCc2cccc(C(F)(F)F)c2)C[C@@]2(C(=O)OCC)CCCC=C12 |  | inactive: -19.4% |
| CCc1cc2ccc(C)cc2nc1SCC(=O)NC1CCCC1 | inconclusive [inhibitor, partial curve, poor fit] |  |
| COc1ccc(-n2nnnc2SCC(=O)NC2CCCC2)cc1OC |  | inactive: 13.9% |
| S=c1[nH]nc(-c2ccncc2)n1Cc1ccco1 | inconclusive [inhibitor, single point] |  |
| O=C(Cn1nc(-c2ccc(Cl)cc2)ccc1=O)NCc1ccc2c(c1)OCO2 | inconclusive [inhibitor, single point] |  |
| OC(c1ccc2ccccc2c1)c1ncc(-c2cccc3ccccc23)[nH]1 (stereo not given) |  | inactive: -9.48% |
| Cn1nc(C(=O)NNC(=O)CCOc2ccc(C(C)(C)C)cc2)c2ccccc2c1=O | inconclusive [inhibitor, partial curve] |  |
| Cc1ccc(N(C)S(=O)(=O)c2cccc(C(=O)Nc3nnc(C4CC4)s3)c2)cc1 | inconclusive [inhibitor, single point] |  |
| Brc1ccc(CNc2cc3c(cc2Br)OCCO3)cc1 | inconclusive [inhibitor, partial curve] |  |
